The campaign covered roughly 48,000 compounds. About 120 (0.25%) were called active. The inconclusive results got no clear call from the source; some entries with a clear call stand among them for comparison. The call rests on the fitted dose curve; in most records, active means well fitted activation curve with a large enough effect; inconclusive means small, poorly fitted or top-dose-only effect, or another doubt; inactive means no such curve, though single readings can be large or run the other way. A potency beside an inconclusive call is a rough fit, not a confirmed value.
Assay: Primary qHTS for Identification of Small Molecule Activators of Huntingtin-Antisense Promoter Activity; further: nearly all actives have a fitted effect of over 55% in size
Settings: HEK293 HTT-AS promoter firefly luciferase reporter, 24 h; activity change, positive = activation: at 57.5 µM (top of the series), percent change from vehicle, -100% = no light unless noted
How it was run: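 HEK293 luciferase promoter-reporter cells (2,500/well) plated 24 h, then compounds added at up to 57.5 uM final for 24 h at 37 °C. Firefly luminescence by Dual-Glo, normalized to vehicle (0%) and zero RLU (-100%).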
Potency means the concentration at half of the fitted maximal effect; tags describe the fitted curve by direction and shape.

Potency, inactive:
CCc1cnc2c(c1SCC(=O)N1CCCCC1)c(=O)n(C)c(=O)n2C
CN1CCc2c(c3ccccc3n2Cc2ccc(C(=O)NO)cc2)C1
CCN1CCN(CCCNC(=O)c2cc3c(=O)n(C)c4ccccc4c3s2)CC1
O=C(CSc1c2c(nc3ccc(Cl)cc13)CCCC2)N1CCN(c2cccc(Cl)c2)CC1
OCc1cnc(SCc2ccccc2F)n1Cc1ccc(F)cc1
COc1ccc(CCNC(=O)C2CC(=O)N(CCc3ccccc3)C2)cc1OC (stereo not drawn)
Cc1ccc(C(=O)Nc2ccc3nc(SCC(=O)N4CCc5ccccc54)sc3c2)cc1
Cc1cc(C)c(NC(=O)Cn2c(SCC(=O)NCc3ccccc3)nc3ccccc32)c(C)c1
CCOC(=O)[C@H](CCc1ccccc1)N[C@@H](C)C(=O)N1CCCC1C(=O)O (stereo partly drawn)
CCCCCCOc1ccc(/C=C/C(=O)Nc2sc3c(c2C(=O)OC)CCC3)cc1OC
COc1ccc(-c2nc3c(c(SCC(=O)Nc4cccc(O)c4)n2)Cc2c(CO)cnc(C)c2O3)cc1
COc1cccc(C(=O)NCCc2csc3nc(-c4ccccc4F)nn23)c1OC

Potency, inconclusive:
Cc1ccc(C)c(N2CCN(C(=O)c3ccc(NC(=O)c4nsc5ccccc45)cc3)CC2)c1 2 µM [activator, partial curve, poor fit]
CC(C)Oc1ccc(CNC(=O)c2cc3ccccn3n2)cc1 10 µM [activator, partial curve, poor fit]
Cc1ccccc1C(=O)c1cccn1CC(=O)NCc1ccccc1 22.4 µM [activator, single point]
CC(=O)c1c(C)nc2nc(-c3ccccc3)nn2c1C 14.1 µM [activator, partial curve, poor fit]
Cc1ccc(C(=O)Nc2cccc(C(=O)O)c2)cc1S(=O)(=O)N1CCCC1 0.224 µM [activator, full curve, poor fit]
N#CCNC(=O)c1ccc(-c2ccnc(Nc3ccc(N4CCOCC4)cc3)n2)cc1 12.2 µM [activator, partial curve, poor fit]
CCc1ccc(-c2nn(CC(=O)Nc3ccccc3)c3c2cnc2ccc(F)cc23)cc1 3.55 µM [activator, full curve]
CCCNC(=O)c1ccc2c(c1)sc1nc(-c3ccc(C)cc3)cn12 1.58 µM [activator, full curve, poor fit]
CC1CCn2c(nc3cc(C(=O)NCc4ccccc4)ccc32)C1 (stereo not drawn) 11.2 µM [activator, partial curve]
COc1ccc(C(=O)Nc2nc3c(s2)CCCC3)cc1Cl 2.82 µM [activator, partial curve, poor fit]
Cc1ccc(-c2cn(-c3cccc(Cl)c3)c(S(=O)(=O)CC(=O)Nc3cccc(C)c3)n2)cc1 1.58 µM [activator, full curve, poor fit]
COc1ccc(C(=O)Nc2nnc(C)s2)cc1 2.24 µM [activator, full curve]
Cc1ccn2c(Nc3ccc4c(c3)OCCO4)c(-c3cccs3)nc2c1 1.26 µM [activator, full curve]
O=C(CSc1nnc(-c2ccc(Cl)cc2)o1)Nc1ccc(F)cc1 15.8 µM [activator, partial curve, poor fit]
CCCOc1ccc(CNC(=O)C2CCCN(c3nc4c(C)cc(C)cc4s3)C2)cc1 (stereo not drawn) 1.41 µM [activator, full curve, poor fit]
COc1ccc(OCCn2c(NC(=O)c3ccc(OC)cc3)nc3ccccc32)cc1 5.01 µM [activator, single point]
CCn1c(COc2ccc(Cl)cc2Cl)nc2ccccc21 8.91 µM [activator, partial curve]
CCOc1ccc(-c2cc3c(=O)n(CC(=O)NCc4ccc(F)cc4)ccn3n2)cc1 0.178 µM [activator, full curve, poor fit]
COC(=O)C[C@](O)(CCCC(C)(C)O)C(=O)O[C@@H]1C(OC)=C[C@]23CCCN2CCc2cc4c(cc2[C@H]13)OCO4 21.7 µM [activator, partial curve]
CC(C)(C)c1ccc(C(=O)Nc2ccc(-c3nc4ccccc4o3)c(O)c2)cc1 7.08 µM [activator, single point]
Cc1ccc(NC(=O)/C=C/c2ccccc2Cl)cc1Cl 1.78 µM [activator, full curve, poor fit]
Cc1cc(C)cc(NC(=O)Cc2noc3ccccc23)c1 25.1 µM [activator, single point]
COc1ccc(-c2nc3sc(CCNC(=O)c4ccc(Br)o4)c(C)n3n2)cc1 2.51 µM [activator, single point]
CN1CCN(c2ncnc3c2cnn3-c2cccc(Cl)c2)CC1 2 µM [activator, full curve]
O=C(O)c1ccccc1C(=O)Nc1ccc(Br)c2cccnc12 3.55 µM [activator, partial curve, poor fit]
CCCNC(=O)c1ccc2c(c1)nc1n2CCCCC1 2 µM [activator, full curve, poor fit]
Cc1cccc(-c2noc(-c3cc(C(C)C)[nH]n3)n2)c1 1 µM [activator, partial curve, poor fit]
CCc1nn(CC(=O)Nc2ccc(C)c(F)c2)c(=O)c2cc3cc(C)ccc3n12 20 µM [activator, partial curve, poor fit]
COc1cccc(NC(=O)c2c(-c3ccc(C)cc3)nnc3ccccc23)c1 15.8 µM [activator, partial curve, poor fit]
O=C(CNS(=O)(=O)c1cccs1)N1CCN(c2ccccc2Cl)CC1 8.91 µM [activator, partial curve]
COc1cccc(-n2nnc3c(sc4nc(C)cc(C)c43)c2=O)c1 1.41 µM [activator, partial curve, poor fit]
Clc1cccc(-n2ncc3c(NC4CCCCC4)ncnc32)c1 0.891 µM [activator, partial curve, poor fit]
CCOC(=O)C1CCN(C(=O)c2cc3ccc4cccnc4c3[nH]2)CC1 1.41 µM [activator, full curve, poor fit]
COc1ccc(Nc2ncnc3c2cnn3-c2ccc(C)cc2C)cc1 14.1 µM [activator, partial curve]
CCS(=O)(=O)c1ccccc1C(=O)N(Cc1cccnc1)c1nc2cc(C)c(C)cc2s1 3.55 µM [activator, single point]
Cc1ccc(-n2nc3ccc(NC(=O)c4cc5ccccc5o4)cc3n2)cc1 15.8 µM [activator, partial curve]
CCN(CC)c1ccc(-c2nc(-c3ccncc3)no2)cc1[N+](=O)[O-] 1.41 µM [activator, full curve, poor fit]
CCS(=O)(=O)Nc1cc(-c2cn3ccc(C)cc3n2)ccc1C 17.8 µM [activator, partial curve, poor fit]
Cc1ccccc1C(C(=O)NC1CCCCC1)N(C(=O)Cn1ccnc1C)c1cccc(F)c1 (stereo not drawn) 24.3 µM [activator, partial curve]
COc1cccc2sc(NC(=O)c3ccc4c(c3)OCCO4)nc12 1.12 µM [activator, full curve, poor fit]
Cc1ccc2nc(-c3ccc(NC(=O)Cc4ccccc4)cc3)sc2c1 39.8 µM [activator, partial curve, poor fit]
Cc1ccc(-n2nc3cc(C)c(NC(=O)c4ccc(-c5ccccc5)o4)cc3n2)cc1 14.1 µM [activator, partial curve]
Cc1cccc(S(=O)(=O)Nc2cccc(-c3ccc(N4CCCCC4)nn3)c2)c1 1.58 µM [activator, full curve, poor fit]
Cn1nnnc1SCCCNCc1ccc(Cl)cc1 15.8 µM [activator, partial curve]
COc1ccc(C(=O)Nc2cccc(-c3cn4ccsc4n3)c2)cc1OC 10 µM [activator, partial curve, poor fit]
CCOC(=O)c1cccc(NC(=O)c2ncoc2-c2ccco2)c1 5.01 µM [activator, partial curve, poor fit]

Activity change, positive = activation, inconclusive:
CCOc1ccc(N2CC(NC(=O)CCc3ccccc3)CC2=O)cc1 (stereo not drawn) -15.4% [activator]
Cc1ccc(C)c(NC(=O)CN2C(=O)CCc3ccccc32)c1 -49.4% [activator]
COC(=O)c1ccc(NC(=O)CSc2nc3ccc(OC)cc3[nH]2)cc1 -1.87% [activator]
COc1ccccc1-c1noc(CSc2nnc(Cc3ccccc3)n2-c2ccc(C)c(C)c2)n1 -34.8% [activator]
CC(=O)c1cccc(NC(=O)CN2C(=O)c3ccccc3Sc3ncccc32)c1 -6.9% [activator]

Reference: PubChem BioAssay AID1508624 (National Center for Advancing Translational Sciences (NCATS), 2021)
